Results: the RNAGym collection of RNA variant scans (doi:10.7554/elife.90254)
Read counts are not given, so values of variants with three or more changes are uncertain.

B1: OR4K15 (parent)
chain: GUUAACGGUCAUAGGCCAUGGAAACUAGGAGCACCAUUUCGCUGCCAGUGAAGAAAUGAACAAAGAAAAUCUGGGCCAGGCAGGCAUCAAAAGAAAUAGUCUUGCGCUCAACCAGAAAGUCUGUAAUCAUUUUAAGGGUA

Variants of: B1
Test: self-cleavage, relative activity (ratio to wild type); higher = more cleavage; in vitro, sequencing; the parent is a self-cleaving ribozyme
With U57C A64U U72A A110G U122C the self-cleavage was 0.01.
U2A G29A A47U A67G A78U U122A U139C gave a self-cleavage of 0.8.
Variant G15A U43C A66U A69G A82G has a self-cleavage of 0.62.
In the case of A30G A47G A55G A96G U120C, the self-cleavage is reported as 0.14.
Variant U39C U72A U127A has a self-cleavage of 0.36.
In the case of U19C A52G U87C A94G U108C, the self-cleavage is reported as 0.01.
With A89G U124C U132C the self-cleavage was 0.83.
A51G A69G A94G showed a self-cleavage of 0.72.
For A4G U43C G83A, the self-cleavage was 1.01.
Variant A64G U72C A117G has a self-cleavage of 0.13.
Work on A62C A64U C85A yielded a self-cleavage of 0.47.
Variant U2C U9A A60G has a self-cleavage of 0.99.
Work on U38C U72A U124A yielded a self-cleavage of 0.19.
For A11G A23G A51U, the self-cleavage was 1.2.
For A30G U100C A114G U132C, the self-cleavage was 0.77.
For A60U C109U U132C, the self-cleavage was 0.54.
Work on U26A A91G A114G yielded a self-cleavage of 0.28.
With U12C G48C A95G the self-cleavage was 1.35.
Variant G8U A27G A78G A118G has a self-cleavage of 0.47.
In the case of U2C A27G A89U U100C, the self-cleavage is reported as 1.8.
A13G A66G C121A showed a self-cleavage of 2.89.
U19C A23G A51G U87A A91G A96G U108A U127A gave a self-cleavage of 0.03.
In the case of U19C A82U U103C A116G, the self-cleavage is reported as 0.02.
Work on U43C A47G A51U yielded a self-cleavage of 1.53.
For U12C A36G A56G U122A, the self-cleavage was 0.68.
For A23G A92G A96G, the self-cleavage was 0.8.
A62U U72C A78U gave a self-cleavage of 0.08.
With U9C A18G U102C A111G the self-cleavage was 0.06.
Variant A22G A59G A110G U139C has a self-cleavage of 0.08.
Work on A51U A56G A82U A140G yielded a self-cleavage of 0.29.
Work on A18G A66G A78G A86G A91G yielded a self-cleavage of 0.07.
For A52G U108C A117G, the self-cleavage was 0.
U2C A51G G74C A96G U108A showed a self-cleavage of 0.06.
With U2C A59G A67G A95G A140G the self-cleavage was 0.8.
A33G C40U A116U showed a self-cleavage of 0.05.
Variant A13G U49G A60G U122C has a self-cleavage of 0.46.
In the case of U9C A69U A117G U122C, the self-cleavage is reported as 1.48.
In the case of A33C A91G U122A, the self-cleavage is reported as 1.19.
A30U A52G A111G showed a self-cleavage of 0.03.
With U2C U49C A52G the self-cleavage was 1.09.
In the case of U43A U72C U131C, the self-cleavage is reported as 0.08.
A89G A92G U100C A114U U132C gave a self-cleavage of 0.02.
A62C A64G A110G gave a self-cleavage of 0.2.
U9C A62G A66G U131G gave a self-cleavage of 1.91.
With C16U U70C U102C the self-cleavage was 0.71.
Variant A30G A52G U70C A125G has a self-cleavage of 0.16.
Work on U2C A30U U38C A66U U131C U139C yielded a self-cleavage of 0.69.
For A11G A22U A111G, the self-cleavage was 0.09.
In the case of A56G A69U A116G, the self-cleavage is reported as 0.73.
A23G A95G U122C gave a self-cleavage of 1.23.
G48A A86G A116G showed a self-cleavage of 0.17.
With U49A A60G A96G A118G the self-cleavage was 1.05.
A30U G41A U108A A117G gave a self-cleavage of 0.01.
With A22G U120C A134G the self-cleavage was 0.64.
Work on U2C A33U A86G yielded a self-cleavage of 1.6.
With U37C A82U A86G A118G the self-cleavage was 0.09.
In the case of U43A A55G A68G U70C, the self-cleavage is reported as 0.44.
Variant A5G A64U A94G U127C has a self-cleavage of 0.54.
For A33U A54G A118U, the self-cleavage was 0.78.
A24G A47C A118C showed a self-cleavage of 1.12.
Work on A24C A51G A67G A91G yielded a self-cleavage of 0.89.
For U38C U39A A52U C76G, the self-cleavage was 0.06.
With A18U U26C A82C the self-cleavage was 0.23.
U39C A63U U108C gave a self-cleavage of 0.
U2C A110G U122C U124C showed a self-cleavage of 0.19.
For U87C A92U U108C, the self-cleavage was 0.01.
In the case of A33G A69G A125U, the self-cleavage is reported as 0.48.
For A54G U97C U120C, the self-cleavage was 0.36.
U26C C40A A55G A63G A82U A98U U100C A126G gave a self-cleavage of 0.52.
For A30G U39C U122C, the self-cleavage was 1.14.
For A18G A59U A68G A90G A116G, the self-cleavage was 0.35.
Work on A24G U39C U97C yielded a self-cleavage of 1.34.
A5G U19C A118G U124C showed a self-cleavage of 0.52.
Variant A27G A59G A82G has a self-cleavage of 0.55.
Variant U19C U57C A69G U103C U132C has a self-cleavage of 0.97.
With A24C U49C A116G U130A the self-cleavage was 0.16.
A51U A66G A78G A111G U130C showed a self-cleavage of 0.02.
U72A A86U U100C gave a self-cleavage of 0.6.
Work on U39C C46U A56G A66G yielded a self-cleavage of 1.74.
Variant A22G U26C A82G has a self-cleavage of 0.34.
With G8A A18G U43A U100C the self-cleavage was 1.15.
With A30G A96G A116G the self-cleavage was 0.42.
For A24G A91G A98U, the self-cleavage was 1.54.
With U19C A68G A96G the self-cleavage was 0.31.
Variant A91G A96G C101U U108A has a self-cleavage of 0.01.
With U102C A114U U132C A135G the self-cleavage was 0.06.
A5G A30G U108C U127C U132A showed a self-cleavage of 0.02.
Variant A86G A89C U124C has a self-cleavage of 0.56.
With A91G C109U U124C the self-cleavage was 0.02.
For U87C U103C U132C, the self-cleavage was 0.64.
In the case of A64G G75A A94G C112U, the self-cleavage is reported as 0.02.
Work on A18U A33G U131C yielded a self-cleavage of 0.71.
G7A A62G G136A gave a self-cleavage of 1.42.
A11G A62G A117G U122A gave a self-cleavage of 2.05.
Variant A63G A82G A96G A111C U120C has a self-cleavage of 0.01.
A24C U43C A90G U100C gave a self-cleavage of 2.46.
A23G A51G A54G gave a self-cleavage of 1.14.
Work on A51G U70C A117G U122C yielded a self-cleavage of 1.13.
Work on A11G A23G U39A U102C U108C yielded a self-cleavage of 0.02.
Variant A51U A82G A89G has a self-cleavage of 0.85.
U39C G58A A110G showed a self-cleavage of 0.07.
A13G A36G A111G showed a self-cleavage of 0.05.
For A54G U97C U133A, the self-cleavage was 1.82.
With A23G A89G U132C the self-cleavage was 1.07.
Work on A23G A59G U124C yielded a self-cleavage of 0.36.
U9C A55G A129G gave a self-cleavage of 1.88.
A95G U100A A114G A135G gave a self-cleavage of 0.19.
U2C A18C A24G A60U A94G gave a self-cleavage of 1.15.
With A54G A90G A114U U122G the self-cleavage was 0.05.
Work on U43A A68G U72A U97C yielded a self-cleavage of 0.08.
Work on A5G U9C U87A A94G yielded a self-cleavage of 0.8.
A91C U102C A116G gave a self-cleavage of 0.78.
For A22G G48A A94G, the self-cleavage was 1.17.
With U39C A66G U122C the self-cleavage was 1.29.
With A36G A78U A95G A96G the self-cleavage was 0.22.
In the case of A23U A82G A94G, the self-cleavage is reported as 0.39.
U39C A89G A90U U108A gave a self-cleavage of 0.01.
A59G C77U U100C gave a self-cleavage of 2.21.
U3C A67G G75C A92G A96G U127C showed a self-cleavage of 0.05.
U9G C76A U103A gave a self-cleavage of 0.1.
Work on A24U A82U U103C yielded a self-cleavage of 0.1.
In the case of U57C U87C A117U A125G, the self-cleavage is reported as 0.16.
Variant U9C A33G A62U U102A A116G has a self-cleavage of 0.2.
Variant U26A U108A U122A has a self-cleavage of 0.
Variant A63G A66G A111G has a self-cleavage of 0.05.
Work on A66G U120A C128A yielded a self-cleavage of 1.29.
Work on U19C U43C A68G U97C U122C yielded a self-cleavage of 0.6.
For U3A A66G G75A A78U, the self-cleavage was 0.08.
In the case of A13G A82G U87A, the self-cleavage is reported as 0.58.
Work on A23U A36G A47G yielded a self-cleavage of 1.94.
A13G U49C U57C A59U gave a self-cleavage of 0.6.
Work on U38C A54G U102C yielded a self-cleavage of 1.96.
For A24G A54G A69G U72C, the self-cleavage was 0.16.
In the case of A5G A67G A94G A117G, the self-cleavage is reported as 0.55.
U9A A52G A56G U139C gave a self-cleavage of 0.94.
A5G U108A A116G gave a self-cleavage of 0.
In the case of A67G A68G G73U A82G A126G, the self-cleavage is reported as 0.12.
Work on A66G U97C U103C yielded a self-cleavage of 0.73.
With A82U A117G U122G the self-cleavage was 0.51.
In the case of A4G A23U U97A U102C U122A, the self-cleavage is reported as 0.58.
With U2C U100C C105U A111U U132C the self-cleavage was 0.02.
U39A A56G A63G A69G A78G showed a self-cleavage of 0.42.
A59G A126G U132C showed a self-cleavage of 0.92.
G41A U87A A96G gave a self-cleavage of 2.23.
With U9C U19G A33U A94G A116G the self-cleavage was 1.07.
Work on A27U U37C U122C A129G U133C yielded a self-cleavage of 0.75.
Variant A13U U39C A69G U127C A129U has a self-cleavage of 1.23.
In the case of A33G A59G A60G, the self-cleavage is reported as 0.96.
Work on A4G A62G A64G C76G A110G yielded a self-cleavage of 0.1.
With U9C A62G A98G the self-cleavage was 0.58.
For A67G C109A U122A, the self-cleavage was 0.18.
A11G A51G A54G showed a self-cleavage of 1.37.
Work on G20A C45U A114U yielded a self-cleavage of 0.02.
With A67G U127C A129G the self-cleavage was 0.22.
With A11G A63G U139C the self-cleavage was 0.95.
A54U A63G A126G U130C showed a self-cleavage of 0.38.
For A47G A91G A96G, the self-cleavage was 1.15.
G15A A23G U100C showed a self-cleavage of 1.72.
Variant A54G U70C G83A A111U U133C has a self-cleavage of 0.2.
With A4G A33G A36U the self-cleavage was 1.12.
Variant U26G A55G A116G has a self-cleavage of 0.46.
With G73A U100C G136A the self-cleavage was 0.38.
In the case of A47U A51G A96G A117G, the self-cleavage is reported as 0.44.
Work on A47C A62G U133C yielded a self-cleavage of 1.19.
With A24G A96G U100C A118U the self-cleavage was 0.9.
In the case of A13U U57A U131C, the self-cleavage is reported as 1.76.
In the case of A13U A52G A55G A60G, the self-cleavage is reported as 1.1.
